According to PMC8179877:
No constants are given. Whether binding was seen depends on the method and setting. Some results given as binding are weak or reduced against the parent protein; the word gives no strength.

What follows are molecules tested against OsGSAM, rice glutamate 1-semialdehyde 2,1-aminomutase, full length (rice (Oryza sativa)) (UniProt Q6YZE2) (assay: two-hybrid; Matchmaker GAL4 two-hybrid system 3 (Clontech), Y2HGold yeast; GAL4 AD fusion (full length or fragment) co-transformed with the GAL4 BD fusion of full-length OsGSAM; growth on -Ade/-His/-Leu/-Trp plates at dilutions 1, 0.1 and 0.01; 30 mM 3-AT for the combination with the self-activating fusion vector).

Row | binding | Molecule
1 | no binding | OsGSAM fragment R10 (401th-478th amino acid residues) (domain or fragment, UniProt Q6YZE2 401-478) GGHIRGMFGFFFTAGPVHNFGDAKKSDTAKFGRFYRGMLEEGVYLAPSQFEAGFTSLAHTSQDIEKTVEAAAKVLRRI
2 | binds | OsGSAM fragment R5 (1st-160th amino acid residues) (domain or fragment, UniProt Q6YZE2 1-160) MAGAAAASAAAAAVASGISARPVAPRPSPSRARAPRSVVRAAISVEKGEKAYTVEKSEEIFNAAKELMPGGVNSPVRAFKSVGGQPIVFDSVKGSRMWDVDGNEYIDYVGSWGPAIIGHADDTVNAALIETLKKGTSFGAPCVLENVLAEMVISAVPSIE
3 | binds | OsGSAM fragment R8 (81th-160th amino acid residues) (domain or fragment, UniProt Q6YZE2 81-160) SVGGQPIVFDSVKGSRMWDVDGNEYIDYVGSWGPAIIGHADDTVNAALIETLKKGTSFGAPCVLENVLAEMVISAVPSIE
4 | no binding | OsGSAM fragment R7 (1st-80th amino acid residues) (domain or fragment, UniProt Q6YZE2 1-80) MAGAAAASAAAAAVASGISARPVAPRPSPSRARAPRSVVRAAISVEKGEKAYTVEKSEEIFNAAKELMPGGVNSPVRAFK
5 | no binding | OsGSAM fragment R4 (161th-320th amino acid residues) (domain or fragment, UniProt Q6YZE2 161-320) MVRFVNSGTEACMGALRLVRAFTGREKILKFEGCYHGHADSFLVKAGSGVATLGLPDSPGVPKGATSETLTAPYNDVEAVKKLFEENKGQIAAVFLEPVVGNAGFIPPQPGFLNALRDLTKQDGALLVFDEVMTGFRLAYGGAQEYFGITPDVSTLGKII

Target: OsGSAM, rice glutamate 1-semialdehyde 2,1-aminomutase, full length (rice (Oryza sativa)) (UniProt Q6YZE2)
Assay: as above
Remark: another data set of the same source

Row | binding | Molecule
6 | binds | OsGSAM fragment R1 (1st-240th amino acid residues) (from UniProt Q6YZE2 1-240) (domain or fragment)
7 | binds | OsGSAM fragment R2 (241th-478th amino acid residues) (from UniProt Q6YZE2 241-478) (domain or fragment)
8 | binds | OsGSAM fragment R3 (81th-400th amino acid residues) (from UniProt Q6YZE2 81-400) (domain or fragment)
9 | binds | OsGSAM fragment R6 (321th-478th amino acid residues) (from UniProt Q6YZE2 321-478) (domain or fragment)
10 | binds | OsGSAM fragment R9 (321th-400th amino acid residues) (from UniProt Q6YZE2 321-400) (domain or fragment)
11 | binds | OsGSAM, rice glutamate 1-semialdehyde 2,1-aminomutase, full length (from UniProt Q6YZE2 1-478) (enzyme)
